{"source": "paper PMC12820563", "note": "Some of the results follow. The list includes weakly bound sequences."}
{"target": "T1, MBP-FoxP3dN (UniProt Q99JB6)", "T1 sequence": "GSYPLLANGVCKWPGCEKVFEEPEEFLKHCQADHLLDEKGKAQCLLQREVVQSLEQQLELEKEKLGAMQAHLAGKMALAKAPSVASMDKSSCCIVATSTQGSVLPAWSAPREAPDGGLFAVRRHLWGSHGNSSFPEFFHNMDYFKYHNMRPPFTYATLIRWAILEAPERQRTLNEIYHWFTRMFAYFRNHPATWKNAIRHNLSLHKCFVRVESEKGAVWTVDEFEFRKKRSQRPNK", "assay": "PD-seq (MBP pull-down with sequencing)", "conditions": "20 mM Tris-HCl pH 7.5, 100 mM NaCl, 1.5 mM MgCl2, 0.4 uM protein, 0.1 uM dsDNA library, 30 min, room temperature, amylose pull-down; high values mean tight binding; double strand, one strand shown"}
{"sequence": "GATGATTGTTCTCCCAGCTGATGAATTCTTTGCTTCGAGTAAACAAATTTTCCTAATCTTTCTGTTCAAGCGCCATCTAC", "binding signal (RPM ratio (pull-down/input))": 0.407}
{"sequence": "GATGATTGTTCTCCCAGCTGATGAATTTGAAATATCGAGTAAACAAATTTTCCTAATCTTTCTGTTCAAGCGCCATCTAC", "binding signal (RPM ratio (pull-down/input))": 0.351}
{"sequence": "GATGATTGTTCTCCCAGCTGATGAATTACCTCTATCGAGTAAACAAATTTTCCTAATCTTTCTGTTCAAGCGCCATCTAC", "binding signal (RPM ratio (pull-down/input))": 0.384}
{"sequence": "GATGATTGTTCTCCCAGCTGATGAATTTCGAGTATCGAGTAAACAAATTTTCCTAATCTTTCTGTTCAAGCGCCATCTAC", "binding signal (RPM ratio (pull-down/input))": 0.717}
{"sequence": "GATGATTGTTCTCCCAGCTGATGAATTCGAGCTCTCGAGTAAACAAATTTTCCTAATCTTTCTGTTCAAGCGCCATCTAC", "binding signal (RPM ratio (pull-down/input))": 0.302}
{"sequence": "GATGATTGTTCTCCCAGCTGATGAATTGTGGTGGTCGAGTAAACAAATTTTCCTAATCTTTCTGTTCAAGCGCCATCTAC", "binding signal (RPM ratio (pull-down/input))": 1.11}
{"sequence": "GATGATTGTTCTCCCAGCTGATGAATTGTTAGGTTCGAGTAAACAAATTTTCCTAATCTTTCTGTTCAAGCGCCATCTAC", "binding signal (RPM ratio (pull-down/input))": 1.1}
{"sequence": "GATGATTGTTCTCCCAGCTGATGAATTAAGGGACTCGAGTAAACAAATTTTCCTAATCTTTCTGTTCAAGCGCCATCTAC", "binding signal (RPM ratio (pull-down/input))": 0.385}
{"sequence": "GATGATTGTTCTCCCAGCTGATGAATTGGGCCTGTCGAGTAAACAAATTTTCCTAATCTTTCTGTTCAAGCGCCATCTAC", "binding signal (RPM ratio (pull-down/input))": 3.56}
{"sequence": "GATGATTGTTCTCCCAGCTGATGAATTCGGCAGCTCGAGTAAACAAATTTTCCTAATCTTTCTGTTCAAGCGCCATCTAC", "binding signal (RPM ratio (pull-down/input))": 1.36}
{"sequence": "GATGATTGTTCTCCCAGCTGATGAATTGGAATCATCGAGTAAACAAATTTTCCTAATCTTTCTGTTCAAGCGCCATCTAC", "binding signal (RPM ratio (pull-down/input))": 0.503}
{"sequence": "GATGATTGTTCTCCCAGCTGATGAATTCTGAAAGTCGAGTAAACAAATTTTCCTAATCTTTCTGTTCAAGCGCCATCTAC", "binding signal (RPM ratio (pull-down/input))": 0.204}
{"sequence": "GATGATTGTTCTCCCAGCTGATGAATTAAGGAGATCGAGTAAACAAATTTTCCTAATCTTTCTGTTCAAGCGCCATCTAC", "binding signal (RPM ratio (pull-down/input))": 0.249}
{"sequence": "GATGATTGTTCTCCCAGCTGATGAATTCAATAGATCGAGTAAACAAATTTTCCTAATCTTTCTGTTCAAGCGCCATCTAC", "binding signal (RPM ratio (pull-down/input))": 0.268}
{"sequence": "GATGATTGTTCTCCCAGCTGATGAATTACTGGGTTCGAGTAAACAAATTTTCCTAATCTTTCTGTTCAAGCGCCATCTAC", "binding signal (RPM ratio (pull-down/input))": 0.346}
{"sequence": "GATGATTGTTCTCCCAGCTGATGAATTCGCCACATCGAGTAAACAAATTTTCCTAATCTTTCTGTTCAAGCGCCATCTAC", "binding signal (RPM ratio (pull-down/input))": 1.75}
{"sequence": "GATGATTGTTCTCCCAGCTGATGAATTATGAGGTTCGAGTAAACAAATTTTCCTAATCTTTCTGTTCAAGCGCCATCTAC", "binding signal (RPM ratio (pull-down/input))": 0.544}
{"sequence": "GATGATTGTTCTCCCAGCTGATGAATTGCGCGGCTCGAGTAAACAAATTTTCCTAATCTTTCTGTTCAAGCGCCATCTAC", "binding signal (RPM ratio (pull-down/input))": 1.06}
{"sequence": "GATGATTGTTCTCCCAGCTGATGAATTGGGAAGATCGAGTAAACAAATTTTCCTAATCTTTCTGTTCAAGCGCCATCTAC", "binding signal (RPM ratio (pull-down/input))": 0.198}
{"sequence": "GATGATTGTTCTCCCAGCTGATGAATTAGAAGGCTCGAGTAAACAAATTTTCCTAATCTTTCTGTTCAAGCGCCATCTAC", "binding signal (RPM ratio (pull-down/input))": 0.318}
{"sequence": "GATGATTGTTCTCCCAGCTGATGAATTATAAGCTTCGAGTAAACAAATTTTCCTAATCTTTCTGTTCAAGCGCCATCTAC", "binding signal (RPM ratio (pull-down/input))": 0.414}
{"sequence": "GATGATTGTTCTCCCAGCTGATGAATTCCTTGGTTCGAGTAAACAAATTTTCCTAATCTTTCTGTTCAAGCGCCATCTAC", "binding signal (RPM ratio (pull-down/input))": 0.28}
{"sequence": "GATGATTGTTCTCCCAGCTGATGAATTAGTGCTATCGAGTAAACAAATTTTCCTAATCTTTCTGTTCAAGCGCCATCTAC", "binding signal (RPM ratio (pull-down/input))": 1.16}
{"sequence": "GATGATTGTTCTCCCAGCTGATGAATTACCTGAGTCGAGTAAACAAATTTTCCTAATCTTTCTGTTCAAGCGCCATCTAC", "binding signal (RPM ratio (pull-down/input))": 0.173}
{"sequence": "GATGATTGTTCTCCCAGCTGATGAATTGGACTATTCGAGTAAACAAATTTTCCTAATCTTTCTGTTCAAGCGCCATCTAC", "binding signal (RPM ratio (pull-down/input))": 0.406}
{"sequence": "GATGATTGTTCTCCCAGCTGATGAATTTAAACAGTCGAGTAAACAAATTTTCCTAATCTTTCTGTTCAAGCGCCATCTAC", "binding signal (RPM ratio (pull-down/input))": 0.398}
{"sequence": "GATGATTGTTCTCCCAGCTGATGAATTTGTTACGTCGAGTAAACAAATTTTCCTAATCTTTCTGTTCAAGCGCCATCTAC", "binding signal (RPM ratio (pull-down/input))": 4.22}
{"sequence": "GATGATTGTTCTCCCAGCTGATGAATTCGAACGATCGAGTAAACAAATTTTCCTAATCTTTCTGTTCAAGCGCCATCTAC", "binding signal (RPM ratio (pull-down/input))": 0.255}
{"sequence": "GATGATTGTTCTCCCAGCTGATGAATTAATCCCTTCGAGTAAACAAATTTTCCTAATCTTTCTGTTCAAGCGCCATCTAC", "binding signal (RPM ratio (pull-down/input))": 0.316}
{"sequence": "GATGATTGTTCTCCCAGCTGATGAATTGTGCGAATCGAGTAAACAAATTTTCCTAATCTTTCTGTTCAAGCGCCATCTAC", "binding signal (RPM ratio (pull-down/input))": 0.484}
{"sequence": "GATGATTGTTCTCCCAGCTGATGAATTCTACGAGTCGAGTAAACAAATTTTCCTAATCTTTCTGTTCAAGCGCCATCTAC", "binding signal (RPM ratio (pull-down/input))": 0.243}
{"sequence": "GATGATTGTTCTCCCAGCTGATGAATTAGAGGCCTCGAGTAAACAAATTTTCCTAATCTTTCTGTTCAAGCGCCATCTAC", "binding signal (RPM ratio (pull-down/input))": 0.756}
{"sequence": "GATGATTGTTCTCCCAGCTGATGAATTTGTATCATCGAGTAAACAAATTTTCCTAATCTTTCTGTTCAAGCGCCATCTAC", "binding signal (RPM ratio (pull-down/input))": 5.48}
{"sequence": "GATGATTGTTCTCCCAGCTGATGAATTGTATATTTCGAGTAAACAAATTTTCCTAATCTTTCTGTTCAAGCGCCATCTAC", "binding signal (RPM ratio (pull-down/input))": 3.17}
{"sequence": "GATGATTGTTCTCCCAGCTGATGAATTTCTGTCATCGAGTAAACAAATTTTCCTAATCTTTCTGTTCAAGCGCCATCTAC", "binding signal (RPM ratio (pull-down/input))": 0.504}
{"sequence": "GATGATTGTTCTCCCAGCTGATGAATTTACATACTCGAGTAAACAAATTTTCCTAATCTTTCTGTTCAAGCGCCATCTAC", "binding signal (RPM ratio (pull-down/input))": 0.936}
{"sequence": "GATGATTGTTCTCCCAGCTGATGAATTCGTGTCCTCGAGTAAACAAATTTTCCTAATCTTTCTGTTCAAGCGCCATCTAC", "binding signal (RPM ratio (pull-down/input))": 1.25}
{"sequence": "GATGATTGTTCTCCCAGCTGATGAATTGTTTAATTCGAGTAAACAAATTTTCCTAATCTTTCTGTTCAAGCGCCATCTAC", "binding signal (RPM ratio (pull-down/input))": 1.2}
{"sequence": "GATGATTGTTCTCCCAGCTGATGAATTTATTGTTTCGAGTAAACAAATTTTCCTAATCTTTCTGTTCAAGCGCCATCTAC", "binding signal (RPM ratio (pull-down/input))": 6.4}
{"sequence": "GATGATTGTTCTCCCAGCTGATGAATTCTATCGGTCGAGTAAACAAATTTTCCTAATCTTTCTGTTCAAGCGCCATCTAC", "binding signal (RPM ratio (pull-down/input))": 0.346}
